Assay results as given in paper PMC4336329 (PLoS ONE, 2015).
Screen size: about 310,000 compounds; about 2,200 (0.71%) showed an effect of 50% or more. The effect is printed as a negative number. Some of the results follow.

target: human ether-à-go-go-related gene (hERG) potassium channel (human, UniProt Q12809); test: primary screen, population patch clamp on CHO cells stably expressing hERG
Sequence (Q12809 whole entry, looked up): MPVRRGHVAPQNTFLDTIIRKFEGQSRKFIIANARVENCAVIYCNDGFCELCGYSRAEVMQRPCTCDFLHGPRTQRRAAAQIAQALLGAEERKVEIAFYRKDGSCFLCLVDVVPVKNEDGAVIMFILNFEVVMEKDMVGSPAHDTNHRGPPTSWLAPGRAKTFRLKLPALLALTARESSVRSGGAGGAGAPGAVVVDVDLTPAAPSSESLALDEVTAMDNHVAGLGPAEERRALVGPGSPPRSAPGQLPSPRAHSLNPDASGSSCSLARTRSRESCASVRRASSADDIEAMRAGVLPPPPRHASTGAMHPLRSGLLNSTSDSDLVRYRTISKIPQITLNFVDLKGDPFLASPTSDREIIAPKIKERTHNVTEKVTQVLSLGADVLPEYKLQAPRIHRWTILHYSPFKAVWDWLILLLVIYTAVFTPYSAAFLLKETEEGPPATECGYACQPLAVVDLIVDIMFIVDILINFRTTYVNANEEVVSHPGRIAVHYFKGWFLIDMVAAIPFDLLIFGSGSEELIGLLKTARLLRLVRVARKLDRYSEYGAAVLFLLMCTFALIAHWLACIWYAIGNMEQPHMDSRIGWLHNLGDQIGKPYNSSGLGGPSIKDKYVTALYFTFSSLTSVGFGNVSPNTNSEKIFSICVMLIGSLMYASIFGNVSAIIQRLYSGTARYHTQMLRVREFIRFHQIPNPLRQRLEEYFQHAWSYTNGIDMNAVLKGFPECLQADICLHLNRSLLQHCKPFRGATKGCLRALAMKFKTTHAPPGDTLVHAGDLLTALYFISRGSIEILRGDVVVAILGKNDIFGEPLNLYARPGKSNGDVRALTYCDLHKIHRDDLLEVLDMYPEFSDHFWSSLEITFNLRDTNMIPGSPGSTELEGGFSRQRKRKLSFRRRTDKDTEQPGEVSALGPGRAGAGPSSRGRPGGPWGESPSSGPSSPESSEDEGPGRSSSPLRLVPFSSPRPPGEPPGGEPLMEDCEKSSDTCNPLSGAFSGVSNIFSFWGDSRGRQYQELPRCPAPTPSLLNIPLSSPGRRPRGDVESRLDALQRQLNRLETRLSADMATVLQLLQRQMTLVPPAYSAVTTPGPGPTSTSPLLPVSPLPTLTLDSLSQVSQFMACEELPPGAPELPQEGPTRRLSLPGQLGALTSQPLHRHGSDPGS

Compound | hERG current change (%, negative = inhibition) at 1uM [%]
Cc1cccc(NS(=O)(=O)c2cccs2)n1 | 17.6
Cc1ccc(NC(=S)N(Cc2cccc(Br)c2)CC2CCC(C(=O)O)CC2)cc1Cl (stereo not drawn) | -7.65
Cc1ccc(NC(=O)c2cnccn2)cc1S(=O)(=O)N(C)C | 17
CCC(C(=O)NCCN1CCOCC1)n1c2ccccc2c2nc(=O)cc(C)n21 (stereo not drawn) | 21.6
COc1ccc(CCNC(=O)COc2ccc(N(C)S(=O)(=O)c3ccc(C)cc3)cc2)cc1OC | -5.06
CCN1CCN(CCCNC(=O)c2ccc(/C=C3/Sc4ccccc4N(Cc4ccccc4F)C3=O)cc2)CC1 | 5.98
COC(=O)C1=C(C)N(C)C(C)=C(C(=O)OC)C1c1cccc(Br)c1 | 5.09
CN(C)CCN(CC1CCCN(Cc2ccccc2F)C1)C(=O)Cc1ccccc1F (stereo not drawn) | 10.1
COc1ccccc1NC(=O)Cc1nnc(SCC(=O)c2ccccc2)n1C | 14.2
CC(=O)Nc1cccc(/C(C)=N/NC(=O)c2cccc(S(=O)(=O)N3CCOCC3)c2)c1 | 4.66
COc1ccc(NC(=O)C2C3C=CC(O3)C2C(=O)NCc2cccnc2)cc1 (stereo not drawn) | 2.8
COC(=O)c1ccc(NC(=O)CCN2CCN(Cc3ccccc3)CC2)cc1 | -16.9
O=C(O)c1cnc(-c2ccccc2)nc1C(F)(F)F | 18.5
COc1ccc(-c2ccc(/C=C3\C(=O)N(c4ccccc4)N=C3c3ccccc3)o2)c([N+](=O)[O-])c1 | 15.3
CC(C)(C)SCCNS(=O)(=O)c1ccc(C#N)cc1 | 9.46
O=C(COC(=O)c1ccccc1)NC12CC3CC(CC(C3)C1)C2 | 14.2
O=C(C[N+]1(CC#Cc2ccccc2)CCCCC1)c1ccc(Cl)cc1.[Br-] | 12.5
CS(=O)(=O)c1ccc(Cl)c(NC(=O)COC(=O)C23CC4CC(CC(C4)C2)C3)c1 | 4.37
Cc1cccc2sc(N(CCCN(C)C)C(=O)c3sc4ccccc4c3Cl)nc12.Cl | 1.41
COc1ccccc1NC(=O)c1ccc(C(=O)c2ccccc2)o1 | -7.07
COC(=O)c1cn(-c2ccc(Cl)cc2)c(=O)c2ccccc12 | 4.32
CCc1cc(=O)oc2cc(C)cc(OC(=O)c3ccco3)c12 | 19.4

Compound | hERG current change (%, negative = inhibition) at 1uM [%]
c1ccc(-c2ccnc3nc(-n4cccc4)nn23)cc1 | 19
CCCCn1nnnc1SCC(=O)NCc1ccccc1 | 6.53
COc1ccc(Cl)cc1C(=O)NNC(=S)NC(=O)c1ccc(F)c(F)c1 | 9.17
O=C(O)c1ccc(/C=C2\SC(=S)N(NC(=O)c3ccccc3[N+](=O)[O-])C2=O)cc1 | 8.05
COc1ccc(OC)c(NC(=O)c2cc(-c3c(C)cc(C)cc3O)n[nH]2)c1 | 29.5
O=S(=O)(Nc1ccc(Br)cc1)c1cccc(NC(=S)NCCN2CCOCC2)c1 | 12.1
CC(C)Cc1ccc(CN2CCCC(NC(=O)c3ccoc3)C2)cc1 (stereo not drawn) | -7.26
CCOC(=O)Cc1[nH]nc2c1C(c1cccc(OC)c1OC)C(C#N)=C(N)O2 (stereo not drawn) | 4.15
Cc1occc1C(=O)N1CCCC(Nc2ccc(C(C)C)cc2)C1 (stereo not drawn) | 13.3
Cc1noc(/C=C/c2ccco2)c1S(=O)(=O)N1CCC(C(=O)NCc2ccco2)CC1 | -1.4
CC1(c2nnc(-c3cccc(Cl)c3)o2)CC(c2ccc(Cl)cc2)=NO1 (stereo not drawn) | 17
Cc1c(CCC(=O)O)c(=O)oc2cc(OCc3ccc(Br)cc3)ccc12 | 6.19
CC(=O)N1CCN(S(=O)(=O)c2ccc(C)cc2)C1C (stereo not drawn) | 8.95
Cc1ccccc1OCC(O)CNC1CCCC1.Cl (stereo not drawn) | 11.4
COc1ccc(NC(=O)CN2CCN(c3ccccc3)CC2)cc1 | 3.56
Cc1cc(-c2nnc(SCC(=O)Nc3cccc(F)c3)n2N)n[nH]1 | 7
CCSc1nc(C)nc2sc(C)c(C)c12 | 11.6
O=C(O)c1ccccn1 | 1.43
O=C(NCC(=O)N1CCN(c2ncccn2)CC1)c1ccc(F)cc1 | 0.59
CCc1cccc(C)c1NC(=O)CSc1nnc(Cc2csc(C)n2)o1 | 1.18
COc1ccc(/C=N/N2CCOCC2)cc1COc1ccc(Cl)cc1 | 10.3
O=C(Nc1ccccc1N1CCOCC1)c1ccccc1NS(=O)(=O)c1ccc(F)c(F)c1 | 6.53

Compound | hERG current change (%, negative = inhibition) at 1uM [%]
Cc1ccc(NC(=O)CCN2C(=O)NC3(CCCC3)C2=O)cc1S(=O)(=O)N1CCOCC1 | 3.22
O/N=C/c1ccccc1OCc1ccc(Cl)cc1 | 10.1
Cn1c(CNc2nc3ccccc3n2C)nc2ccccc21 | -2.58
O=C(NC1CCCCCC1)C1C2C=CC3(CN(Cc4cccnc4)C(=O)C13)O2 (stereo not drawn) | 6.42
COc1ccc(Cc2nnc(NC(=O)CSc3ccccc3)s2)cc1 | 16.1
COc1ccc(-n2cc3c(-c4cccc(Br)c4)nnc(C)c3n2)cc1 | 7.35
CCCCN(C(=O)C1CC(=O)N(c2ccc(OC)cc2OC)C1)c1c(N)n(CC(C)C)c(=O)[nH]c1=O (stereo not drawn) | 14.6
CCOC(=O)C(/C=N/c1cc(C)nn1-c1ccccc1)=C(\C)O | 14
COC(=O)[C@]12C(=O)C(C)=C(O)[C@@]1(C)C(C)=CC1[C@@]34CC[C@@H](OC(C)=O)C(C)(C)C3C(C[C@]12C)OC4=O (stereo partly drawn) | 7.57
CC(=O)NC12CC3CC(C1)CC(C(=O)N1CCN(S(=O)(=O)c4ccc(Cl)s4)CC1)(C3)C2 | -0.504
Cc1cc(C)nc(NC2=NCC(=O)N2c2ccccc2Br)n1 | 13
Cc1ccc(NC(=O)C2CC(c3ccc(F)cc3)=NO2)cc1 (stereo not drawn) | 18.6
CN1CCN(c2nc3c(c(=O)n(C)c(=O)n3C)n2CCSc2nc3ccccc3s2)CC1 | 9.38
Cc1ccc(CSc2nnc(-c3cccnc3)n2N)cc1 | 16
Cc1ccc(S(=O)(=O)N(C)C)cc1NC(=O)C1CCC1 | 14.6
Cc1ccn2cc(C(=O)N3CCCC(Nc4ccc(F)cc4)C3)nc2c1 (stereo not drawn) | 7.29
COc1ccc(N(CC(=O)N2CCCCCC2)S(C)(=O)=O)cc1Cl | 14.2
Cc1ccc(S(=O)(=O)Cc2ccc(C(=O)OCc3ccccc3)cc2)cc1 | 1.1
Br.CCN1CCN(CC(=O)c2ccc(OC)cc2)CC1 | 7.58
O=C(CSc1cccc[n+]1[O-])Nc1ccc(C(F)(F)F)cc1[N+](=O)[O-] | 10.2
C=CCOc1ccc(/C=N/NC(=O)c2cc3c(OC)cc(OC)cc3[nH]2)cc1 | 15.5
C/C=C/c1ccc(OCCOc2cc(C=O)ccc2OC)c(OC)c1 | 16.5

Compound | hERG current change (%, negative = inhibition) at 1uM [%]
COc1ccc(CNC(=O)CN(C(=O)c2csnn2)c2ccc(C(C)=O)cc2)cc1 | 3.03
CC1(C)CC(NC(=O)Nc2ccc([N+](=O)[O-])cc2)CC(C)(C)N1 | 1.68
O=C(Nc1ccc(S(=O)(=O)N2CCc3ccccc3C2)cc1)c1ccccc1 | 4.74
Cc1ccc(S(=O)(=O)N(C)C)cc1NC(=O)CSc1ncc(C(F)(F)F)cc1Cl | -10.5
COc1ccc(-c2cc(-c3ccccc3)nc(NN)n2)cc1OC | 7.38
COC(=O)c1cc(NCc2cccs2)ccc1N1CCOCC1 | 10.4
CC1CN(C(=O)CSc2nc(-c3ccccc3)cs2)CC(C)O1 (stereo not drawn) | 13.2
O=C(Nc1ccc(S(=O)(=O)N2CCCCC2)cc1)c1ccccc1F | 11.6
C=CC[n+]1c(/C=C/c2ccc(OC(C)=O)c(OC)c2)ccc2ccccc21.[Cl-] | -0.584
Cc1ccc(-c2noc(CSc3nnnn3C3CCCCC3)n2)cc1 | 10
O=C(O)c1cc(S(=O)(=O)N2CCN(c3ccccn3)CC2)ccc1Cl | 12.4
C[C@H](NC(=O)c1nc[nH]c1C(=O)N[C@@H](C)c1ccccc1)C(=O)OC(C)(C)C | 7.34
Cc1cc(O)c(C(=O)/C=C/c2ccccc2)c(=O)o1 | 13.5
CCc1nccn1S(=O)(=O)c1ccc(OC)c(C)c1C | 9.2
O=C(Nc1ccc([N+](=O)[O-])cc1)c1nc[nH]c1C(=O)NC1CCCCC1 | 13
CC1Oc2ccccc2C=C1/C=C1/SC(N2CCOCC2)=NC1=O (stereo not drawn) | 0.416
CCOC(=O)C1CCCN(C2CCN(Cc3nc(-c4ccccc4)no3)CC2)C1 (stereo not drawn) | -11.2
Cc1cc(-c2nnc(SCC(=O)NC3CC3)n2C(C)C)cs1 | -7.49
Cc1cc(NC(=O)CCCS(=O)(=O)c2nc(-c3cccs3)cc(C(F)(F)F)n2)no1 | 7.58
CCN1C(=O)N/C(=C/c2ccc(C)o2)C1=O | 10.8
Cc1ccc(Oc2nc3ccccc3n3c(C)nnc23)c(C)c1 | 0.491
